Assay results: PMC4336329 (PLoS ONE, 2015)
Screen size: about 310,000 compounds; about 2,200 (0.71%) showed an effect of 50% or more. The effect is printed as a negative number. This is one part of the list.

molecular target: human ether-à-go-go-related gene (hERG) potassium channel (human, UniProt Q12809); test: primary screen, population patch clamp on CHO cells stably expressing hERG
Sequence (Q12809 whole entry, looked up): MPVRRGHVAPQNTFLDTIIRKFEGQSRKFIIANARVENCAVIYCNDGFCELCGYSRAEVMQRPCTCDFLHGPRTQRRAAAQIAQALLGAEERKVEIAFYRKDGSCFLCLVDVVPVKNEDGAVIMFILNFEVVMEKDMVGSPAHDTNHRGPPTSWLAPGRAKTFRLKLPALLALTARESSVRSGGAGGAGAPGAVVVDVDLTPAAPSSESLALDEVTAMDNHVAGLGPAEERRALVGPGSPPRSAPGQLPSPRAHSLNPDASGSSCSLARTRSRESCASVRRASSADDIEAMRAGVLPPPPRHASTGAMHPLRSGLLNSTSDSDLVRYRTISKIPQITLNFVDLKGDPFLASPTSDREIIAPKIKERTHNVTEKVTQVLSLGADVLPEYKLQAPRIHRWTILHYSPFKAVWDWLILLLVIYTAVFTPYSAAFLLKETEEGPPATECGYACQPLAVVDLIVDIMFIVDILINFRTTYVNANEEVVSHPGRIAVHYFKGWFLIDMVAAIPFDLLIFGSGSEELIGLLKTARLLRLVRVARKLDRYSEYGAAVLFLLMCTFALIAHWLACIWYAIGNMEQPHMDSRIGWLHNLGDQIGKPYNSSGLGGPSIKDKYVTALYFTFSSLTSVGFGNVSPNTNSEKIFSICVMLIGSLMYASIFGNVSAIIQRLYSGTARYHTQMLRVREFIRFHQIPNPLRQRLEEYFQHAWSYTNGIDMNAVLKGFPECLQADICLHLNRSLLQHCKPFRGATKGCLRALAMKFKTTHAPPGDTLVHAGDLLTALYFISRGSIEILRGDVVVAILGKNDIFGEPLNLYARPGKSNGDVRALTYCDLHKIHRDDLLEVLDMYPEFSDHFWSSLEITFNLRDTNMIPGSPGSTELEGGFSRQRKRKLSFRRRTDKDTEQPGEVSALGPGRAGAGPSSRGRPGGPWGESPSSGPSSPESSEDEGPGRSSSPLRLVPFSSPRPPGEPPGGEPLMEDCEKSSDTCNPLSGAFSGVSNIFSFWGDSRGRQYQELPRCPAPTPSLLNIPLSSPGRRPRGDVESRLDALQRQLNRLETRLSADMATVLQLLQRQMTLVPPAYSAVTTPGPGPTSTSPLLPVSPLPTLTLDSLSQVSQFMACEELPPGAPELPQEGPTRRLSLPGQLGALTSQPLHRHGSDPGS

Compound	hERG current change (%, negative = inhibition) at 1uM [%]
Cc1cc(NC(=O)c2ccc(F)cc2)n(-c2ccccn2)n1	7.33
CNNC(=S)Nc1cccc(C(F)(F)F)c1	11.7
CC(C)(CO)NCC(O)COc1ccc2c(c1)CCC2 (stereo not drawn)	10.6
O=C1CC(N2CC=C(c3ccc(F)cc3)CC2)C(=O)N1c1ccc(F)cc1 (stereo not drawn)	5.54
COC(=O)c1nc2n(n1)C(c1cc(OC)ccc1OC)C(C(=O)OC1CCCCC1)=C(C)N2 (stereo not drawn)	6.83
O=C(c1sccc1Cl)N1CCN(Cc2ccc3c(c2)OCO3)CC1	0.364
CN(Cc1ccco1)S(=O)(=O)c1nnc(NC(=O)c2ccccc2)s1	9.94
O=C(Nc1ccc2oc(-c3ccccc3)nc2c1)c1ccco1	7.32
CC(C)CN(C(=O)COC(=O)c1ccc2c(c1)OCO2)c1c(N)n(Cc2ccccc2)c(=O)[nH]c1=O	10.5
CCOC(=O)C1=C(O)/C(=C\c2ccc(CNC(=O)C(=O)Nc3ccccc3)o2)N=C1C	12
COc1ccc(CCN(Cc2cc3cc(C)ccc3[nH]c2=O)C(C)=O)cc1OC	8.74
Cc1ccc(OCC2Cn3c(nc4c3c(=O)[nH]c(=O)n4C)O2)cc1C (stereo not drawn)	9.89
O=C(CN1CCN(C(=O)c2ccco2)CC1)Nc1ccc(F)cc1F	-18.1
CCCc1ccccc1OCCNC(C)=O	10.2
Cc1ccc(-c2nc(N)n(C(=O)c3ccco3)n2)cc1	5.44
CC(=O)N(Cc1cc2ccccc2[nH]c1=O)c1ccc(C)cc1	9.38
O=C(c1ccccc1)C1CCCN(Cc2nc(-c3cnccn3)no2)C1 (stereo not drawn)	17.9
O=C(Oc1ccc(C(=S)N2CCOCC2)cc1)c1ccccc1F	4.58
O=C(CSc1nnc(SCc2ccccc2)s1)N/N=C/c1ccc(Cl)cc1Cl	5.33
Cc1ccc(N(CC(=O)NCc2ccco2)C(=O)CCC(=O)Nc2ccccn2)cc1C	9.73
O=C(CN1C(=O)NC2(CCOc3ccccc32)C1=O)c1ccc(F)c(F)c1 (stereo not drawn)	-8.01
CCOC(=O)C(O)(c1ccc(N=Cc2ccccc2O)c(C)c1)C(F)(F)F (stereo not drawn)	11.3
COc1ccc(Cl)cc1NC(=O)C(C)N1CCN(C/C=C/c2ccccc2)CC1.O=C(O)C(=O)O (stereo not drawn)	-14.3

Compound	hERG current change (%, negative = inhibition) at 1uM [%]
Cc1cccc(C(=O)O/N=C2\CCS(=O)(=O)c3sccc32)c1	13.4
Cc1ccc(O)c(NC(=O)c2noc3c2CCCCC3)c1	11.3
Cc1cccc(NC(=O)N2CC3CC(C2)c2cccc(=O)n2C3)c1 (stereo not drawn)	14.4
O=C(Nc1nc2c(ccc3ccccc32)s1)c1cc([N+](=O)[O-])ccc1N1CCOCC1	15.1
CCOC(=O)N1CCN(CCC(=O)Nc2ccc(OC(F)(F)F)cc2)CC1	-31.4
COc1ccc(-c2cc(-c3nnc(COC(=O)c4ccc(O)cc4)o3)c3ccccc3n2)cc1OC	9.17
CCc1ccc(NC(=O)c2onc(C)c2Cl)cc1	12.3
Cc1cc(C)c(OCC(=O)Nc2nnc(-c3ccco3)o2)c(C)c1	4.23
COC(=O)c1cc(C)sc1NC(=O)CN1CCN(C(=O)C2CCCO2)CC1 (stereo not drawn)	-11.3
COc1ccc(S(=O)(=O)CCC(=O)NCCc2ccc(Cl)cc2)cc1	14.5
COc1ccc(N2CCN(Cc3oc(CO)cc(=O)c3O)CC2)cc1	2.29
O=C(O)CCCNC1=NCCC1	12.9
c1ccc2c(c1)C(=Nn1cnnc1)c1ccccc1-2	20.2
O=C(O)Cn1cc(C(=O)C2CC2)c2ccccc21	11.9
CCOc1ncccc1C(=O)OCC(=O)NCCc1ccc(S(N)(=O)=O)cc1	4.03
CC1CC(C)CN(C(=O)CSc2ncnc3sccc23)C1 (stereo not drawn)	16.1
COC(=O)[C@H]1C[C@@H]1[C@H](NS(=O)(=O)c1ccccc1)c1ccccc1	9.44
O=[N+]([O-])c1cccc(-n2nnnc2CNCc2ccccc2)c1	3.04
COc1ccccc1CNC(=O)CCCNC(=O)c1ccc(Cl)cc1	20
COc1cccc(NC(=O)C2CCCN(S(=O)(=O)c3cccc4nonc34)C2)c1 (stereo not drawn)	11.8
CCc1ccc(OCc2ccc(C(=O)O)o2)cc1	19.1
COC(=O)c1ccc(CNC(=O)C(NC(=O)c2ccco2)C(C)C)cc1 (stereo not drawn)	6.42
COc1ccccc1NS(=O)(=O)c1cccc(NC(=O)c2sc3ccccc3c2Cl)c1	-15.6

Compound	hERG current change (%, negative = inhibition) at 1uM [%]
CC1CCCC(C)N1S(=O)(=O)c1ccc(NC(=O)CNC2CCCC2)cc1 (stereo not drawn)	3.78
C=Cn1cc[n+](CC(=O)c2ccc(C)cc2)c1.[Br-]	7.88
CCN(Cc1ccccc1)C(=O)C1CCN(Cc2sccc2C)CC1.O=C(O)C(=O)O	-13.9
CCOc1ccc(-c2cccc(NC(=O)c3cccs3)c2)nn1	-1.34
C/C(=N\Nc1nc(Nc2ccccc2)nc(N2CCOCC2)n1)c1cccs1	15.8
COc1ccc(NS(=O)(=O)c2cn(C)cn2)c(OC)c1	21.5
O=C(C1=C(O)C(=O)N(CCc2ccccc2)C1c1cccs1)c1ccco1 (stereo not drawn)	5.27
COCc1[nH][nH]c(=O)c1C=Nc1ccc(C(F)(F)F)cc1	-2.02
O=C(c1ccc(Cl)cc1)N1CCN(CCOc2ccccc2)CC1	-12.4
O=S(=O)(NCc1ccco1)c1cnc(Cl)c(Br)c1	14.8
CCCNC(=O)/C(C#N)=C1\N=C(NC(=O)c2cccs2)c2ccccc21	17.8
COc1ccc(CC(=O)NCc2n[nH]c(=S)n2-c2cccc(C)c2)cc1	18.3
CC(C)Sc1nnc(OC(=O)N(C)C)n1-c1ccccc1	-1.59
CN[C@@H]1C[C@@H](c2ccc(Cl)c(Cl)c2)c2ccccc21.Cl	14.1
Cc1cc(/C=N/NC(=O)C(O)(c2ccccc2)c2ccccc2)c(C)n1-c1ccccc1	6.18
Cc1cc(Cl)ccc1NC(=O)CCN1C(=O)C2CCCCC2C1=O (stereo not drawn)	15.5
COc1cccc(CNC(=O)CCNC(=O)c2ccccc2OC)c1	3.87
C=CCn1cnc2c(nnn2-c2ccc(OC)c(OC)c2)c1=O	7.37
CCn1c(SCC(=O)NCc2ccccc2)nc2c(c1=O)SC(C)C2 (stereo not drawn)	11.3
COc1ccc(CCC(=O)Nc2cc(Cl)ccc2N2CCN(C)CC2)cc1	-4.09
COC(=O)CSc1ncnc2c1sc1nc(N3CCOCC3)c3c(c12)CCCC3	17.5
Cc1csc(CN(C)C(=O)c2cn(Cc3cccc4ccccc34)nn2)n1	14.4
CCS(=O)(=O)n1nc(-c2ccc(Cl)cc2)nc1N	14.5

Compound	hERG current change (%, negative = inhibition) at 1uM [%]
CN(c1ccccc1)S(=O)(=O)c1ccc(Cl)c(C(=O)OCC(N)=O)c1	17.6
COc1cccc(-c2csc(NNC(=O)c3cccs3)n2)c1	13
O=C(Nc1nccs1)c1cccc(NC(=O)C2CC2)c1	1.93
COc1ccc(C2SCC(=O)N2CCCN(C)C)cc1.Cl (stereo not drawn)	13.1
CN(C)S(=O)(=O)Oc1cccc(C(=O)Nc2ccccc2Cl)c1	-2.9
COc1ccc(NC(=O)CCCNC(=O)c2ccc(Cl)cc2)cc1OC	13.1
Cc1cc(NC(=O)c2ccc(F)cc2)n(-c2ccccc2)n1	-75.3
O=S(=O)(c1cccc(Cn2nnc(-c3ccc(F)cc3)n2)c1)N1CCOCC1	5.57
CCCn1c(CN2CCN(C(=O)OCC)CC2)nc2c1c(=O)n(C)c(=O)n2C	4.58
CC(=O)Nc1sc2c(c1C(c1ccccc1Cl)N1CCN(CCO)CC1)CCCC2 (stereo not drawn)	4.8
COc1ccc(CC(=O)OCCc2cc3cc(OC)c(OC)cc3c(=O)o2)cc1	11.2
S=c1nc(-c2cc(Cl)ccc2Cl)[nH][nH]1	10.7
CC(NCc1ccccc1C(F)(F)F)C(O)c1ccccc1.Cl (stereo not drawn)	7.43
COC(=O)c1sc(NC(=O)c2ccc(C)o2)nc1C	4.98
C=CCn1c(SC)nc2sc3c(c2c1=O)CCc1ccccc1-3	12.5
Cc1oc(-c2cccs2)nc1CS(=O)CC(=O)NCCCN1CC(C)CC(C)C1 (stereo not drawn)	15.3
CCOC(=O)c1c(NC(=O)C2COc3ccccc3O2)sc(C)c1C (stereo not drawn)	1.09
COC(=O)/C(=C/c1ccc(F)cc1)NC(C)=O	-0.329
O=C(NC(=S)Nc1ccccc1Br)C1CCCC1	11.8
CCOC(=O)c1cc(/C(C)=N/OC(=O)c2ccc(Cl)cc2)on1	7.68
O=C(O)COc1ccccc1/C=N/NC(=O)c1ccc2c(c1)OCCO2	4.57
